# In PubChem BioAssay AID504332 (National Center for Advancing Translational Sciences (NCATS), 2011):
# The campaign covered roughly 350,000 compounds. About 31,000 (8.9%) were called active. This list was built around the results that the source calls inconclusive (neither active nor inactive); the mix of calls is not that of the screen. The call rests on the fitted dose curve; in most records, active means well fitted inhibition curve with a large enough effect; inconclusive means small, poorly fitted or top-dose-only effect; inactive means no such curve, though single readings can be large or run the other way. Potencies of inconclusive entries are doubtful fits and often do not repeat.
# Biological target: Histone-lysine N-methyltransferase EHMT2 (Homo sapiens) (UniProt Q96KQ7)
# Assay: qHTS Assay for Inhibitors of Histone Lysine Methyltransferase G9a; further: nearly all actives have a fitted effect of over 75% in size
# Conditions: G9a H3K9 monomethylation, AlphaScreen, 2 h; activity, negative = inhibition: at 59 µM (top of the series) unless noted
# Procedure, shortened: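 Readings reflect AlphaScreen signal from monomethyl-H3K9 antibody detection. HMT at 20 nM; substrate b-H3K9 500 nM; cofactor SAM 20 uM; 2 h RT reaction; compounds tested as titrations in qHTS with 15 min preincubation.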
# On the % scale 0 is the no-effect control and ±100 the full control effect; potency means the concentration at half of the fitted maximal effect; tags describe the fitted curve by direction and shape.
# UniProt Q96KQ7, sequence (Q96KQ7 whole entry, looked up): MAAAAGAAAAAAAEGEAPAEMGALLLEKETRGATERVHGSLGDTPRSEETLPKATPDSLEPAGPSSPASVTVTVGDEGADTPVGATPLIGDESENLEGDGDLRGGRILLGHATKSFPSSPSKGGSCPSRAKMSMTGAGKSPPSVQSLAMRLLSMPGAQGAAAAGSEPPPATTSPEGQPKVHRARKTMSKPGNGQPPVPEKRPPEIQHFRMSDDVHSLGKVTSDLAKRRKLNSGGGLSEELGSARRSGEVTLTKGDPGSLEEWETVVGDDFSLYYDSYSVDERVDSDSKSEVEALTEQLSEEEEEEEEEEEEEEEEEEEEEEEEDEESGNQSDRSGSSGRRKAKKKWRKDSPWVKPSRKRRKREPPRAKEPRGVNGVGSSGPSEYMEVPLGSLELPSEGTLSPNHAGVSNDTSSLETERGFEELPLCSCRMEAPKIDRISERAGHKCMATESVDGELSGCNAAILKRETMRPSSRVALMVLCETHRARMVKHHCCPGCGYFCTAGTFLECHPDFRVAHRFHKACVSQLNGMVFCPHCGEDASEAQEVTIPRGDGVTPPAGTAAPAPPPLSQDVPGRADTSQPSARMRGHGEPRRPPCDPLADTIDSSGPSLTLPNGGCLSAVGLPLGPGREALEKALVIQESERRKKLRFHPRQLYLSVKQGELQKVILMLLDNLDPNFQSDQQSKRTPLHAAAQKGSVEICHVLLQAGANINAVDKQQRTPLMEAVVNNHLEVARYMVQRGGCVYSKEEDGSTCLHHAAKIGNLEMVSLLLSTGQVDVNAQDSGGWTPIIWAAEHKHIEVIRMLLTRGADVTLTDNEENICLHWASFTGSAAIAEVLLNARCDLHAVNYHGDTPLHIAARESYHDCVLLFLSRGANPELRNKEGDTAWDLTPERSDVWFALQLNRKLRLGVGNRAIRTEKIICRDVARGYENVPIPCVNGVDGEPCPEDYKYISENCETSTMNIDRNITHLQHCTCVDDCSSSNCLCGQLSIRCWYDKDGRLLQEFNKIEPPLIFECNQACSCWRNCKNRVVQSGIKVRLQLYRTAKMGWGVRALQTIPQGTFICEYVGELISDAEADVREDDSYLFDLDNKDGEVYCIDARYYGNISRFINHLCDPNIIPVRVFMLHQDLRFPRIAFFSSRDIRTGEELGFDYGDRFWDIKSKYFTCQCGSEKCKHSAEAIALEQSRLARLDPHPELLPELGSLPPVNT
Structure (SMILES),Potency,"activity, negative = inhibition"
C/C(=N/NC(=O)c1ccc(Br)s1)c1ccncc1,active: 70.8 µM,–
CN1CC(O)C2=CC(=O)C(=O)C=C21 (stereo unspecified),"inconclusive: 1.26 µM [inhibitor, full curve, poor fit]",–
CCOC(=O)c1sc(NC(=O)CSc2nc3c(c(=O)n2-c2ccc(C)cc2)SCC3)c(C(=O)OCC)c1C,–,inactive: -32.8% [at 102 µM]
CCCSC1=C(C#N)C(c2cccs2)C(C(=O)Nc2ccccc2)=C(C)N1 (stereo unspecified),"inconclusive: 7.08 µM [inhibitor, full curve, poor fit]",–
COc1ccc(CNCCNC(=O)c2ccco2)c(OC)c1OC,"inconclusive: 6.31 µM [inhibitor, single point]",–
CC1=NN(/C(=N\c2nnc(C)s2)Nc2ccc(C)cc2)[C@H](c2ccc(C)cc2)S1,"inconclusive: 39.8 µM [inhibitor, single point]",–
CCOc1cc(C(=O)Nc2ccc(S(=O)(=O)N3CCOCC3)cc2)cc(OCC)c1OCC,"inconclusive: 8.91 µM [inhibitor, single point]",–
CCCc1ccc(C#N)c(SC2CC(=O)N(c3ccc(OC)cc3)C2=O)n1 (stereo unspecified),"inconclusive: 44.7 µM [inhibitor, partial curve, poor fit]",–
Cc1ccccc1-n1nc2c(c1NC(=O)COc1ccc(Cl)cc1)CS(=O)C2 (stereo unspecified),"inconclusive: 89.1 µM [inhibitor, single point]",–
Cc1ccc(-n2nc(C)c3c2OC(N)=C(C#N)C3c2ccco2)cc1 (stereo unspecified),"inconclusive: 31.6 µM [inhibitor, single point]",–
CN(C)CCOCCOc1ccc(Cl)cc1C(C)(C)C,active: 8.91 µM,–
CC1(C)C2CCC1(C(=O)O)c1nc3ccccc3nc12 (stereo unspecified),"inconclusive: 28.2 µM [inhibitor, single point]",–
COc1cc(C(=O)OCC(=O)N2CCOCC2)c([N+](=O)[O-])cc1OC,"inconclusive: 89.1 µM [inhibitor, partial curve, poor fit]",–
O=C(O)c1ccc(NS(=O)(=O)c2cc(Cl)sc2Cl)cc1,"inconclusive: 89.1 µM [inhibitor, single point]",–
O=C(NCc1ccc(F)cc1)C1CCN(S(=O)(=O)c2ccc3c(c2)CCCN3C(=O)C2CCC2)CC1,–,inactive: -3.83%
O=C(CSc1ccc(-c2ccccn2)nn1)c1ccccc1,"inconclusive: 56.2 µM [inhibitor, partial curve, poor fit]",–
Cc1ccc(N2CCN(C(=O)c3ccc(Nc4nc5ccccc5n5nnnc45)cc3)CC2)c(C)c1,–,inactive: -2.41%
Cc1ccccc1C(=O)Nc1cccc(NC(=O)c2ncn[nH]2)c1,–,inactive: -8.72% [at 102 µM]
COc1ccccc1N1CCN(S(=O)(=O)c2c(C)sc3ncn(CC(=O)Nc4ccc(C(C)C)cc4)c(=O)c23)CC1,–,inactive: -32.2%
O=C(CCCN1C(=O)NC2(CCCC2)C1=O)N1CCN(S(=O)(=O)c2ccccc2)CC1,"inconclusive: 11.2 µM [inhibitor, single point]",–
C/C(=N\O)C(C)(C)Nc1ccccc1F,"inconclusive: 31.6 µM [inhibitor, partial curve, poor fit]",–
Cc1ccc(OCC(=O)Nc2ccc3c(c2)OC(F)(F)O3)c([N+](=O)[O-])n1,–,inactive: 20%
CCOc1cc(CNC(=O)c2ccc3c(c2)nc2n3CCCCC2)ccc1OC,–,inactive: 16.8%

Structure (SMILES),Potency,"activity, negative = inhibition"
O=C(N/N=C/c1c[nH]c2ccccc12)c1ccncc1,–,inactive: -6.93%
CN(Cc1ccccc1)C(=C(Cl)Cl)/C(=C1/NCCN1C)[N+](=O)[O-],active: 50.1 µM,–
CCN(CC)CCCN1C(=O)C(O)=C(C(=O)c2ccc(C)o2)C1c1ccc(C)o1 (stereo unspecified),active: 20 µM,–
O=C1C=C(N2CCOCC2)c2ccccc2C1=O,–,inconclusive: -54.3% [inhibitor] [at 0.501 µM]
CCC1CCCCN1C(=O)N[C@@H](CCSC)C(=O)OC (stereo partly specified),"inconclusive: 70.8 µM [inhibitor, partial curve, poor fit]",–
CCOc1ccccc1-c1nn2c(Cc3ccccc3)nnc2s1,–,inactive: -12.2%
CCNCc1cc([N+](=O)[O-])ccc1OCC,"inconclusive: 7.94 µM [inhibitor, partial curve, poor fit]",–
Cc1ccc(Cn2c(O)c(N=NC(=S)Nc3ccccc3F)c3ccccc32)cc1,active: 11.2 µM,–
Cc1occc1C(=O)NNC(=O)c1ccccc1Br,"inconclusive: 35.5 µM [inhibitor, single point]",–
O=C(CN1CCN(Cc2ccccc2)CC1)Nc1cccc(S(=O)(=O)N2CCCCCC2)c1,"inconclusive: 89.1 µM [inhibitor, single point]",–
CC1CCCCC1NC(=O)CN1C(=O)NC(C)(c2cccc(Br)c2)C1=O (stereo unspecified),–,inactive: 0.0621% [at 2.33 µM]
CC(=O)NS(=O)(=O)c1ccc(NC(=O)CSc2ccc(Cl)cc2)cc1,–,inactive: -30.5% [at 102 µM]
COC(=O)c1ccn(CSc2cc(Cl)ccc2Cl)n1,–,inactive: 15.7% [at 12.7 µM]
O=S(=O)(O)c1cc(I)c(O)c2ncccc12,"inconclusive: 3.55 µM [inhibitor, partial curve, poor fit]",–
Cc1ccc(S(=O)(=O)N2CCN(Cc3ccccc3)CC2)c(C)c1NS(C)(=O)=O,–,inactive: 1.49%
Cc1ccc(N/C=C2\C(=O)C3(C)CCC2C3(C)C)cc1C (stereo unspecified),"inconclusive: 12.6 µM [inhibitor, single point]",–
O=C(NN(C(=O)c1ccccc1)c1ccccc1)c1ccccc1,active: 22.4 µM,–
COc1ccc(CNC(=O)CN(C(=O)c2csnn2)c2cccc3ccccc23)cc1,–,inactive: -10.7% [at 102 µM]
Cc1ccc(NC(=O)CN2c3ccccc3S(=O)(=O)c3ccccc32)cc1F,–,inactive: -5.79%
COc1ccc(CN2CC(C(N)=O)Oc3ccccc32)cc1F (stereo unspecified),"inconclusive: 89.1 µM [inhibitor, single point]",–
COc1ccc(NC(=S)N2CCCC2)cc1OC,"inconclusive: 79.4 µM [inhibitor, single point]",–
C=CC[n+]1c(-c2ccc(C)cc2)csc1Nc1ccc(NC(C)=O)cc1,"inconclusive: 44.7 µM [inhibitor, partial curve, poor fit]",–
COc1cc(/C=N/n2c(-c3cc(C)[nH]n3)n[nH]c2=S)cc(OC)c1O,active: 5.01 µM,–
